# Laboratory results from the supplement of paper PMC8728848.
# Some of the results follow.
# B1: BC2L-D C-terminal domain (Burkholderia cenocepacia), Q39MQ9_BURS3 (protein)
# chain: LVIVDAVTLLSAYPEASRDPAAPTVIDGRHLYVVSPGDAAQLGHNDSRLFTGLSPGDQLHLRETALALRAEVSVLFIRFALKDAGIVAPIELEVRDAATAVPDADDLLHPSCRPLKDHYWRSDVLAAGATTCTADFAVCDRDGTVSGYFRWETSIEIAGSQPDTKQPGFKPSSDRNGNFSLPPNTAFKAIFYANAADRQDLKLFIDDAPEPAATFVGNSEDGVRLFTLNSKGGKIRIEASANGRQSATDARLAPLSAGDTVWLGWLGAEDGADADYNDGIVILQWPIT
# What was measured:
# Assay in all cases: glycan array binding signal (z-score within array); higher = stronger binding
# Details in all cases: glycan notation: IUPAC condensed, linker removed
# Fuc(a1-2)Gal = target: Fuc(a1-2)Gal
# How it was run: (§1)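 Glycan array data came from 3228 arrays in the Consortium for Functional Glycomics database, and only arrays with an available protein sequence were kept. Glycan names were put into IUPAC-condensed notation, and columns mapping to the same glycan were averaged. The binding signal is a within-array Z-score, averaged across arrays of one protein sequence run at different concentrations or buffers and across linkers. A negative Z-score can be read as non-binding.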
# Fuc(a1-2)Gal(b1-3)GalNAc = target: Fuc(a1-2)Gal(b1-3)GalNAc
# How it was run: as §1
# [1] = target: Fuc(a1-2)Gal(b1-3)GalNAc(a1-3)[Fuc(a1-2)]Gal(b1-4)Glc
# How it was run: as §1
# [2] = target: Fuc(a1-2)Gal(b1-3)GalNAc(a1-3)[Fuc(a1-2)]Gal(b1-4)GlcNAc
# How it was run: as §1
# [3] = target: Fuc(a1-2)Gal(b1-3)GalNAc(b1-3)Gal
# How it was run: as §1
# [4] = target: Fuc(a1-2)Gal(b1-3)GalNAc(b1-3)Gal(a1-4)Gal(b1-4)Glc
# How it was run: as §1
# [5] = target: Fuc(a1-2)Gal(b1-3)GalNAc(b1-4)[Neu5Ac(a2-3)]Gal(b1-4)Glc
# How it was run: as §1
# Fuc(a1-2)Gal(b1-3)GlcNAc = target: Fuc(a1-2)Gal(b1-3)GlcNAc
# How it was run: as §1
# [6] = target: Fuc(a1-2)Gal(b1-3)GlcNAc(b1-2)Man(a1-3)[Fuc(a1-2)Gal(b1-3)GlcNAc(b1-2)Man(a1-6)]Man(b1-4)GlcNAc(b1-4)GlcNAc
# How it was run: as §1
# [7] = target: Fuc(a1-2)Gal(b1-3)GlcNAc(b1-2)Man(a1-3)[Fuc(a1-2)Gal(b1-3)GlcNAc(b1-2)Man(a1-6)]Man(b1-4)GlcNAc(b1-4)[Fuc(a1-6)]GlcNAc
# How it was run: as §1
# [8] = target: Fuc(a1-2)Gal(b1-3)GlcNAc(b1-3)Gal(b1-4)Glc
# How it was run: as §1
# [9] = target: Fuc(a1-2)Gal(b1-3)GlcNAc(b1-3)GalNAc
# How it was run: as §1
# [10] = target: Fuc(a1-2)Gal(b1-3)GlcNAc(b1-3)[Fuc(a1-3)[Gal(b1-4)]GlcNAc(b1-6)]Gal(b1-4)Glc
# How it was run: as §1
# [11] = target: Fuc(a1-2)Gal(b1-3)GlcNAc(b1-3)[Gal(b1-4)GlcNAc(b1-6)]Gal(b1-4)Glc
# How it was run: as §1
# [12] = target: Fuc(a1-2)Gal(b1-3)GlcNAc(b1-3)[Gal(b1-4)[Fuc(a1-3)]GlcNAc(b1-6)]Gal(b1-4)Glc
# How it was run: as §1
# [13] = target: Fuc(a1-2)Gal(b1-3)GlcNAc(b1-3)[Neu5Ac(a2-6)Gal(b1-4)GlcNAc(b1-6)]Gal(b1-4)Glc
# How it was run: as §1
# [14] = target: Fuc(a1-2)Gal(b1-3)[Fuc(a1-4)]GlcNAc
# How it was run: as §1
# [15] = target: Fuc(a1-2)Gal(b1-3)[Fuc(a1-4)]GlcNAc(b1-2)Man(a1-3)[Fuc(a1-2)Gal(b1-3)[Fuc(a1-4)]GlcNAc(b1-2)Man(a1-6)]Man(b1-4)GlcNAc(b1-4)GlcNAc
# How it was run: as §1
# [16] = target: Fuc(a1-2)Gal(b1-3)[Fuc(a1-4)]GlcNAc(b1-3)[Fuc(a1-3)[Gal(b1-4)]GlcNAc(b1-6)]Gal(b1-4)Glc
# How it was run: as §1
# [17] = target: Fuc(a1-2)Gal(b1-3)[Fuc(a1-4)]GlcNAc(b1-3)[Gal(b1-4)GlcNAc(b1-6)]Gal(b1-4)Glc
# How it was run: as §1
# Fuc(a1-2)Gal(b1-4)Glc = target: Fuc(a1-2)Gal(b1-4)Glc
# How it was run: as §1
# Fuc(a1-2)Gal(b1-4)Glc6S = target: Fuc(a1-2)Gal(b1-4)Glc6S
# How it was run: as §1
# Fuc(a1-2)Gal(b1-4)GlcNAc = target: Fuc(a1-2)Gal(b1-4)GlcNAc
# How it was run: as §1
# [18] = target: Fuc(a1-2)Gal(b1-4)GlcNAc(b1-2)Man(a1-3)[Fuc(a1-2)Gal(b1-4)GlcNAc(b1-2)Man(a1-6)]Man(b1-4)GlcNAc(b1-4)GlcNAc
# How it was run: as §1
# [19] = target: Fuc(a1-2)Gal(b1-4)GlcNAc(b1-2)Man(a1-3)[Fuc(a1-2)Gal(b1-4)GlcNAc(b1-2)Man(a1-6)]Man(b1-4)GlcNAc(b1-4)[Fuc(a1-6)]GlcNAc
# How it was run: as §1
# [20] = target: Fuc(a1-2)Gal(b1-4)GlcNAc(b1-2)[Fuc(a1-2)Gal(b1-4)GlcNAc(b1-4)]Man(a1-3)[Fuc(a1-2)Gal(b1-4)GlcNAc(b1-2)Man(a1-6)]Man(b1-4)GlcNAc(b1-4)GlcNAc
# How it was run: as §1
# [21] = target: Fuc(a1-2)Gal(b1-4)GlcNAc(b1-3)Gal(b1-4)GlcNAc
# How it was run: as §1
# [22] = target: Fuc(a1-2)Gal(b1-4)GlcNAc(b1-3)Gal(b1-4)GlcNAc(b1-3)Gal(b1-4)GlcNAc
# How it was run: as §1
# [23] = target: Fuc(a1-2)Gal(b1-4)GlcNAc(b1-3)GalNAc
# How it was run: as §1
# [24] = target: Fuc(a1-2)Gal(b1-4)GlcNAc(b1-3)[Fuc(a1-2)Gal(b1-4)GlcNAc(b1-6)]GalNAc
# How it was run: as §1
# [25] = target: Fuc(a1-2)Gal(b1-4)GlcNAc6S
# How it was run: as §1
# [26] = target: Fuc(a1-2)Gal(b1-4)[Fuc(a1-3)]GlcNAc
# How it was run: as §1
# [27] = target: Fuc(a1-2)Gal(b1-4)[Fuc(a1-3)]GlcNAc(b1-2)Man(a1-3)[Fuc(a1-2)Gal(b1-4)[Fuc(a1-3)]GlcNAc(b1-2)Man(a1-6)]Man(b1-4)GlcNAc(b1-4)GlcNAc
# How it was run: as §1
# [28] = target: Fuc(a1-2)Gal(b1-4)[Fuc(a1-3)]GlcNAc(b1-2)[Fuc(a1-2)Gal(b1-4)[Fuc(a1-3)]GlcNAc(b1-4)]Man(a1-3)[Fuc(a1-2)Gal(b1-4)[Fuc(a1-3)]GlcNAc(b1-2)Man(a1-6)]Man(b1-4)GlcNAc(b1-4)GlcNAc
# How it was run: as §1
# [29] = target: Fuc(a1-2)Gal(b1-4)[Fuc(a1-3)]GlcNAc(b1-3)Gal(b1-4)[Fuc(a1-3)]GlcNAc
# How it was run: as §1
# [30] = target: Fuc(a1-2)Gal(b1-4)[Fuc(a1-3)]GlcNAc(b1-3)Gal(b1-4)[Fuc(a1-3)]GlcNAc(b1-3)Gal(b1-4)[Fuc(a1-3)]GlcNAc
# How it was run: as §1
# [31] = target: Fuc(a1-2)Gal(b1-4)[Fuc(a1-3)]GlcNAc(b1-3)GalNAc
# How it was run: as §1
# Fuc(a1-2)Gal6S(b1-4)Glc = target: Fuc(a1-2)Gal6S(b1-4)Glc
# How it was run: as §1
# [32] = target: Fuc(a1-2)Gal6S(b1-4)Glc6S
# How it was run: as §1
# [33] = target: Fuc(a1-2)Gal6S(b1-4)GlcNAc
# How it was run: as §1
# Fuc(a1-2)[Gal(a1-3)]Gal = target: Fuc(a1-2)[Gal(a1-3)]Gal
# How it was run: as §1
# [34] = target: Fuc(a1-2)[Gal(a1-3)]Gal(b1-3)GalNAc
# How it was run: as §1
# [35] = target: Fuc(a1-2)[Gal(a1-3)]Gal(b1-3)GlcNAc
# How it was run: as §1
# [36] = target: Fuc(a1-2)[Gal(a1-3)]Gal(b1-3)GlcNAc(b1-2)Man(a1-3)[Fuc(a1-2)[Gal(a1-3)]Gal(b1-3)GlcNAc(b1-2)Man(a1-6)]Man(b1-4)GlcNAc(b1-4)GlcNAc
# How it was run: as §1
# [37] = target: Fuc(a1-2)[Gal(a1-3)]Gal(b1-3)GlcNAc(b1-2)Man(a1-3)[Fuc(a1-2)[Gal(a1-3)]Gal(b1-3)GlcNAc(b1-2)Man(a1-6)]Man(b1-4)GlcNAc(b1-4)[Fuc(a1-6)]GlcNAc
# How it was run: as §1
binder,measurement,setting,value
B1,glycan array binding signal (z-score),Fuc(a1-2)Gal,-0.116
same,glycan array binding signal (z-score),Fuc(a1-2)Gal(b1-3)GalNAc,0.513
same,glycan array binding signal (z-score),[1],-0.158
same,glycan array binding signal (z-score),[2],-0.159
same,glycan array binding signal (z-score),[3],-0.226
same,glycan array binding signal (z-score),[4],1.08
same,glycan array binding signal (z-score),[5],0.376
same,glycan array binding signal (z-score),Fuc(a1-2)Gal(b1-3)GlcNAc,0.536
same,glycan array binding signal (z-score),[6],1.29
same,glycan array binding signal (z-score),[7],0.094
same,glycan array binding signal (z-score),[8],0.385
same,glycan array binding signal (z-score),[9],-0.16
same,glycan array binding signal (z-score),[10],-0.169
same,glycan array binding signal (z-score),[11],-0.162
same,glycan array binding signal (z-score),[12],0.863
same,glycan array binding signal (z-score),[13],-0.159
same,glycan array binding signal (z-score),[14],0.632
same,glycan array binding signal (z-score),[15],0.416
same,glycan array binding signal (z-score),[16],-0.154
same,glycan array binding signal (z-score),[17],-0.159
same,glycan array binding signal (z-score),Fuc(a1-2)Gal(b1-4)Glc,-0.042
same,glycan array binding signal (z-score),Fuc(a1-2)Gal(b1-4)Glc6S,-0.155
same,glycan array binding signal (z-score),Fuc(a1-2)Gal(b1-4)GlcNAc,0.317
same,glycan array binding signal (z-score),[18],0.369
same,glycan array binding signal (z-score),[19],-0.005
same,glycan array binding signal (z-score),[20],-0.137
same,glycan array binding signal (z-score),[21],0.174
same,glycan array binding signal (z-score),[22],0.093
same,glycan array binding signal (z-score),[23],-0.165
same,glycan array binding signal (z-score),[24],-0.165
same,glycan array binding signal (z-score),[25],0.114
same,glycan array binding signal (z-score),[26],0.336
same,glycan array binding signal (z-score),[27],-0.057
same,glycan array binding signal (z-score),[28],-0.147
same,glycan array binding signal (z-score),[29],0.473
same,glycan array binding signal (z-score),[30],0.543
same,glycan array binding signal (z-score),[31],-0.155
same,glycan array binding signal (z-score),Fuc(a1-2)Gal6S(b1-4)Glc,-0.165
same,glycan array binding signal (z-score),[32],-0.15
same,glycan array binding signal (z-score),[33],-0.158
same,glycan array binding signal (z-score),Fuc(a1-2)[Gal(a1-3)]Gal,-0.243
same,glycan array binding signal (z-score),[34],-0.161
same,glycan array binding signal (z-score),[35],-0.18
same,glycan array binding signal (z-score),[36],0.549
same,glycan array binding signal (z-score),[37],0.296
